# In article PMC4336329 (PLoS ONE, 2015):
# The campaign covered roughly 310,000 compounds. About 14,000 (4.5%) showed an effect of 50% or more. Effects have a minus sign here. Some of the results follow.
# Biological target: human ether-à-go-go-related gene (hERG) potassium channel (human, UniProt Q12809)
# Assay: primary screen, population patch clamp on CHO cells stably expressing hERG
# 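Further: peak tail current of the secondary pulse compared with the same well before compound.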
# human ether-à-go-go-related gene (hERG) potassium channel, sequence (Q12809 whole entry, looked up): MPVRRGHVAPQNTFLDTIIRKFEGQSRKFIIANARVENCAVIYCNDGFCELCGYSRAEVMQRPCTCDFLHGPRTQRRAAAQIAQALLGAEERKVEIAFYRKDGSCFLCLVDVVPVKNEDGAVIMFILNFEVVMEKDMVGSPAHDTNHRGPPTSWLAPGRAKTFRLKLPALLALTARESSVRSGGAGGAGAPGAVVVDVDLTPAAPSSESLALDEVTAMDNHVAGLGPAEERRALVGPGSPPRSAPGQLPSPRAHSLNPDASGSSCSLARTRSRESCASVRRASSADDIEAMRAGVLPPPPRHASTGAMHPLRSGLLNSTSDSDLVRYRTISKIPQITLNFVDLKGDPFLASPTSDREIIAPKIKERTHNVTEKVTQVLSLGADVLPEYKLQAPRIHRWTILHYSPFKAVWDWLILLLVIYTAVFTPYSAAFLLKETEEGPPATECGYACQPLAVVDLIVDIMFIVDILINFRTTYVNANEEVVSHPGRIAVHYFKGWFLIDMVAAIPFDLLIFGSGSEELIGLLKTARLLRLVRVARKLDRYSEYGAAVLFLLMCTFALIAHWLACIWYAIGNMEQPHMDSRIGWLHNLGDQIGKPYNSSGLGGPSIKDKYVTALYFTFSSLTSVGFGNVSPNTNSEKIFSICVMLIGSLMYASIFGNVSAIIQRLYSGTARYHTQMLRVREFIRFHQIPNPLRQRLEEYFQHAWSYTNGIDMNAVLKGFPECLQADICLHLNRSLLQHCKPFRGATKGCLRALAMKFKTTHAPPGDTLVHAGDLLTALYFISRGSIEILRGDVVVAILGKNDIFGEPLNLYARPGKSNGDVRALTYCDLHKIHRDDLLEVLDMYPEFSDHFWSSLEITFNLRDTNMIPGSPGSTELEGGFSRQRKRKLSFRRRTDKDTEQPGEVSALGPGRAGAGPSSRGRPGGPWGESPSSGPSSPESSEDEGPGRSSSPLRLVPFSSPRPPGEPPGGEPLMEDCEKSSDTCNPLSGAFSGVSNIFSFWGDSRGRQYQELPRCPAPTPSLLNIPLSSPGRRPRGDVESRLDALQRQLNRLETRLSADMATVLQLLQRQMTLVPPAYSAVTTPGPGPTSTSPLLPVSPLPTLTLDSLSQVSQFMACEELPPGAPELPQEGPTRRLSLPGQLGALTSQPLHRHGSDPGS
row,SMILES,"hERG current change (%, negative = inhibition) at 10uM [%]"
1,COc1ccc(N2CCN(Cc3cc(=O)oc4cc5c(cc34)CCCC5)CC2)cc1,6.8
2,Cc1c(C(=O)NNC(=S)Nc2cccc(Cl)c2)nnn1-c1ccccc1,-7.53
3,NC(=O)c1nsc(C(=O)N(CCc2ccccc2)C(C(=O)NC2CCCC2)c2ccco2)c1N (centres unmarked),-29.3
4,Nn1c(COc2ccccc2)nnc1SCc1cc(=O)[nH]c2ccccc12,-14.3
5,CN(C)CCNC(=O)C(=O)NCC1OCCN1S(=O)(=O)c1ccc2c(c1)OCCO2 (centres unmarked),12.7
6,COc1ccc(NC(=O)c2c3c(nc4ccccc24)CCN(Cc2ccccc2)C3)c(OC)c1,-15.4
7,CC1CCCN(C(=O)c2cn(-c3ccccc3)nc2-c2cccnc2)C1 (centres unmarked),-15.7
8,C/C(=N\OC(=O)c1cccc(Cl)c1)c1sc(C)nc1C,11
9,Cc1ccc(NC(=O)NCCN2CCN(c3ccccc3)CC2)cc1Cl,16.7
10,Cc1ccccc1C(=O)NCC(=O)OCCOc1ccc(C(C)C)c(C)c1,-19.3
11,N#CCCn1cc(C(=O)N2CCOCC2)c(-c2ccc3c(c2)OCCO3)n1,7.33
12,CCCCCCCC(O)CC(CC1CCCCC1)C(=O)NN (centres unmarked),-5.64
13,Cc1cc(NS(=O)(=O)c2ccc(NC(=O)C(c3ccccc3)c3ccccc3)cc2)no1,0.966
14,Cn1cc(-c2nc3ccccc3[nH]2)c2ccccc21,-31.4
15,O=c1nc2scc(-c3ccccc3)n2c2ccccc12,14.2
16,CC(NC(=O)Cc1ccc(S(=O)(=O)N2CCCCC2)cc1)c1ccccc1 (centres unmarked),-8.73
17,CCN(CC)C(=O)Cn1cc(C(=O)C(=O)N(CC)C2CCCCC2)c2ccccc21,-4.07
18,Cc1ccc(C)c(NC(=O)c2nnn(Cc3ccccc3)c2N)c1,-6.11
19,Cc1cc(=O)[nH]c(N/N=C/c2cccc(Br)c2)n1,-16.7

row,SMILES,"hERG current change (%, negative = inhibition) at 10uM [%]"
1,Cc1[nH]c(=O)[nH]c(=O)c1S(=O)(=O)NCCOC12CC3CC(CC(C3)C1)C2,4.6
2,CC(=O)N1CCc2cc(S(=O)(=O)NCCC(=O)N3CCN(c4ccccn4)CC3)ccc21,-20.1
3,O=C(c1cccc(NS(=O)(=O)c2cccc(C(F)(F)F)c2)c1)N1CCOCC1,5.74
4,CC(C)C12CN3CC(C(C)C)(CN(C1)C3c1ccc([N+](=O)[O-])o1)C2=O (centres unmarked),-24.9
5,CCCCCOC(=O)C1=C(C)NC(=O)NC1c1ccccc1 (centres unmarked),5.18
6,CCN(CC)C(=O)N1CCc2ccccc21,0.177
7,O=C(CNC(=O)c1ccc([N+](=O)[O-])cc1)N/N=C\c1ccc(OC(=O)c2ccccc2)cc1,8.23
8,CCOC(=O)CN1C(=O)S/C(=C/c2ccc(OCc3ccc(C(=O)O)cc3)cc2)C1=O,23.1
9,COC(=O)Nc1sc2nc(C)cc(C)c2c1-n1cccc1,-20.5
10,CCOc1ccccc1NC(=O)C(C)SCc1ccccc1 (centres unmarked),10.9
11,CCCCc1nnc(NC(=O)CCc2ccccc2)s1,19.3
12,C=CCn1c(CNS(=O)(=O)c2ccc(Br)cc2)n[nH]c1=S,14.9
13,O=C1OCC2=C1C(c1ccc(Cl)cc1)CC(=O)N2c1ccc(F)cc1 (centres unmarked),-17.9
14,COc1cc(OC)cc(C(=O)NC(C(=O)NNC(=O)c2cc(Cl)ccc2OC)C(C)C)c1 (centres unmarked),2.89
15,CCOC(=O)C1=C(O)/C(=C\c2cc(C)n(-c3ccc(F)cc3)c2C)N=C1C,7.21
16,CC(C)(C)NC(=O)NC12CC3CC(CC(C3)C1)C2,21.3
17,C=CCn1c(Cc2c[nH]c3ccccc23)nnc1SCC(=O)NCc1ccccc1,-12.9
18,COCCN1C(=O)N[C@@H](c2ccccc2)[C@H](C(=O)OC)[C@H]1C,13.7
19,COCCOc1ccc(C(F)(F)F)cc1NC(=O)c1ccccc1,-10.9

row,SMILES,"hERG current change (%, negative = inhibition) at 10uM [%]"
1,CC(C)C(C)NC(=O)COC(=O)C1CCN(S(=O)(=O)c2ccc3c(c2)OCCO3)CC1 (centres unmarked),-5.52
2,COC(=O)C(Cc1ccccc1)NC(=O)CSc1nc(N)cc(=O)[nH]1 (centres unmarked),22.9
3,Nc1nc(NCCOCCO)nc(NCc2ccccc2)c1[N+](=O)[O-],-1.49
4,c1csc(C2=Nn3c(nnc3-c3ccncc3)SC2)c1,-13.5
5,CN1CCC(=NNC(=O)C(=O)Nc2ccc(F)cc2)CC1,12.8
6,Cc1cc(C)n(S(=O)(=O)c2ccc(C(C)(C)C)cc2)n1,-16.1
7,Cc1ccc(NCC(=O)N/N=C/c2ccc(OC(=O)c3ccco3)cc2)cc1,1.76
8,COc1ccc(N2CCN(CCNS(=O)(=O)c3ccc(C)cc3)CC2)cc1,-13.5
9,CC(=O)NCCc1nc2ccccc2[nH]1,-0.964
10,COc1ccc(CC(=O)N(C)Cc2ccc(Cl)cc2)cc1S(=O)(=O)N1CCOCC1,-31.1
11,CCCCc1cc(=O)oc2cc(C)cc(OC(C)C(=O)NCc3ccccn3)c12 (centres unmarked),-4.28
12,COc1cccc(OC)c1OCC(O)CN1CCN(c2ccc(F)cc2)CC1.Cl (centres unmarked),-74.9
13,Cc1cccc(Oc2ncc(-c3ccc(Cl)cc3)cn2)c1C,6.01
14,Cc1ccc(CCNC(=O)C2CCN(S(=O)(=O)c3ccc4nc5c(c(C(=O)O)c4c3)CCCC5)CC2)cc1,1.85
15,COCCSc1nnc(NC(=O)CSc2ccccc2)s1,2.04
16,CC1(C)CC(=O)C=C(Nc2ccc(F)c(Cl)c2)C1,-0.34
17,COC(=O)c1sccc1NC(=O)CSCCc1ccncc1,-23.4
18,O=C(NCCO)C(=O)Nc1cc2c3c(c1)CCN3C(=O)CC2,15
